Some of the results follow. Further columns of the screen follow, without active or inactive calls. Compounds called inactive in the main read-out are mostly missing here. Potencies come from curve fits of mixed quality, noted in brackets.
Assay: qHTS Assay for Lipid Storage Modulators (AID 1519)
Conditions: Drosophila S3 cells, BODIPY lipid droplet/cell ratio, laser cytometry, cells loaded with oleic acid
Summary of the method: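 Cells seeded at 5,000 per well were treated with compounds over a concentration series and loaded with oleic acid (400 uM, as added). Lipid droplet fluorescence (488 nm excitation, 500-530 nm channel) was read by laser-scanning cytometry and normalized to 20 uM Triacsin C.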

[1] = measured here: cell count channel max response
[2] = measured here: cell number channel AC50
[3] = measured here: lipid (BODIPY) channel AC50
[4] = measured here: lipid channel max response
Tags describe the fitted curve by direction and shape.

| Compound | max response [1] [%] | AC50 [2] | AC50 [3] | max response [4] [%] |
| --- | --- | --- | --- | --- |
| COc1ncc2nc(-c3ccccc3)c(=O)n(CCc3ccccc3)c2n1 | 15.6 | 141 nM [rising, full curve, poor fit] | 126 nM [rising, full curve, poor fit] | 16.2 |
| C=CC1=C(C)C2=Cc3c(C=C)c(C)c4[n]3[Sn+2][n]3c(c(C)c(CCC(=O)O)c3=CC3=NC(=C4)C(C)=C3CCC(=O)O)=CC1=N2 | 61 | 158 nM [rising, full curve, poor fit] | 158 nM [rising, full curve, poor fit] | 81.4 |
| COC(=O)N1CCC2(CCCN(Cc3ccccc3)C2)CC1 | 32.7 | 22400 nM [rising, single point] | 10000 nM [rising, partial curve, poor fit] | 44.8 |
| CN(C)c1ncc2nc(-c3ccc(Cl)cc3)c(=O)n(C)c2n1 | 23 | 3980 nM [rising, full curve, poor fit] | 4470 nM [rising, full curve, poor fit] | 28.4 |
| CCCCN1CCC(CCC(=O)c2cc(Cl)c(N)cc2OC)CC1 | 51 | 15800 nM [rising, partial curve] | 15800 nM [rising, partial curve, poor fit] | 65.7 |
| FC(F)(F)c1ccccc1-c1ccc2ncnc(NC3CC3)c2c1 | 5.71 | 63.1 nM [rising, full curve, poor fit] | 35.5 nM [rising, full curve, poor fit] | 0.23 |
